This is an account of results in publication PMC6919601, “Identification of Plasmodium dipeptidyl aminopeptidase allosteric inhibitors by high throughput screening” (PLoS ONE, 2019).

Out of some 110,000 compounds screened, about 230 (0.21%) showed an effect of 50% or more. The list shows a part of the results.
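Also: 30 min substrate incubation versus DMSO and 10 µM JCP410 controls.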

This experiment deals with DPAP1 (Plasmodium falciparum, UniProt Q8IIJ9). Description: primary screen, percent inhibition; read by cleavage of a fluorogenic dipeptide substrate; higher = more effect of the substance. On the set-up: species or system P. falciparum D10 trophozoite lysates; single well.
Sequence of DPAP1 (Q8IIJ9 whole entry, looked up): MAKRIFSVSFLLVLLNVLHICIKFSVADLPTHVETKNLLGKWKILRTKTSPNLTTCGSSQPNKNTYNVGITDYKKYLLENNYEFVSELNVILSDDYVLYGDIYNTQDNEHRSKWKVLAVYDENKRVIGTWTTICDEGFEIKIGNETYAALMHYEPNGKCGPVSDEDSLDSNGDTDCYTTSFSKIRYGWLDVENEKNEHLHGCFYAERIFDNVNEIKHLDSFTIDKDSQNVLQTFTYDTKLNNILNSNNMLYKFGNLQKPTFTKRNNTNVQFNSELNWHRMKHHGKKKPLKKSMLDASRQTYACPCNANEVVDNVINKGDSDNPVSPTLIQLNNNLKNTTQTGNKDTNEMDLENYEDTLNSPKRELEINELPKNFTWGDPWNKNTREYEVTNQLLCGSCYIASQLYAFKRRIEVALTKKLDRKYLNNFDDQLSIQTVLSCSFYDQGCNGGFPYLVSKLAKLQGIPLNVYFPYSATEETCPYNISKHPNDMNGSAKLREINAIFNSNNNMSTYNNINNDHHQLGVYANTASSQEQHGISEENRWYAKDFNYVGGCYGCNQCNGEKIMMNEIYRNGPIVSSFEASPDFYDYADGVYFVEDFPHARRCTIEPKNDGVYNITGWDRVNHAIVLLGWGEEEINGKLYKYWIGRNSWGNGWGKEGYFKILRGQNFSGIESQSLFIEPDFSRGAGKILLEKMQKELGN
For the compound `N#Cc1c(N)nc2c(c1-c1ccc(Cl)cc1)CCCC2`, the “% Inhibition @ 10 uM” value was 1.84%.
Regarding `COCCCN1C(=O)S/C(=C/c2ccc(O)c(Cl)c2)C1=O`, the “% Inhibition @ 10 uM” value is on record as 2.4%.
Regarding `Cc1cc(-c2ccccc2)nc2cc(C(=O)NCc3cccs3)nn12`, the “% Inhibition @ 10 uM” value was -5.28%.
`O=C(Nc1nc2ccccc2s1)c1ccc(Cl)cc1`: the “% Inhibition @ 10 uM” value was -1.17%.
For `CCN(CC)C(=O)c1c(NC(=O)c2ccccc2)sc2c1CCCC2`, the “% Inhibition @ 10 uM” value is 19.3%.
With `Cc1ccc(CNC(=O)C2CCCN(S(=O)(=O)N3CCCCCC3)C2)cc1` (stereo not shown), the “% Inhibition @ 10 uM” value turned out to be 4.36%.
On to `N#CC(C(N)=O)=C1CCC2(CC1)OCCCCO2`, for which the “% Inhibition @ 10 uM” value is -0.969%.
Consider `COc1ccc2c(CNC3CCCC(C)C3C)c(C(=O)O)n(Cc3ccc(C)cc3)c2c1` (stereo not shown), for which the “% Inhibition @ 10 uM” value stood at 3.12%.
For the compound `CCc1nc2ccccc2c(NC(=O)CN2CCCCC2)c1C`, the “% Inhibition @ 10 uM” value was determined as 1.9%.
Regarding `O=S(=O)(Nc1c(Cl)cc(Cl)c2cccnc12)c1ccccc1`, the “% Inhibition @ 10 uM” value was -0.216%.
For `CC(C(=O)Nc1ccc(Br)cc1)N1C(=O)c2ccccc2C1=O` (stereo not shown), the “% Inhibition @ 10 uM” value is reported as -3.92%.
Regarding `COc1cc(CNC(C)(C)CO)cc(Cl)c1OCC(=O)NC(C)(C)C`, the “% Inhibition @ 10 uM” value worked out at 3.63%.
With `Cc1ccc(NCN2C(=O)C3C4C=CC(C4)C3C2=O)cc1Cl` (stereo not shown) the figure was -4.68%; with `CCOc1ccccc1C1CC(=O)NC2=C1C(=O)CCC2` (stereo not shown), -3.87%; with `O=C(CCCN1C(=O)C(c2ccccc2)Oc2cccnc21)NCc1ccccn1` (stereo not shown), -0.397%.
With `CCOc1cc(C2C(C#N)=C(N)OC3=C2C(=O)CC(C)(C)C3)ccc1OCc1ccccc1F` (stereo not shown) the figure was 1.35%.
For `O=C(NC1CC1)C1CCC(=O)N1Cc1ccc(F)cc1` (stereo not shown), the “% Inhibition @ 10 uM” value was found to be 3.24%.
As to `CC1CCN(C(=O)CSc2ncnc3c2sc2ccccc23)CC1`, the “% Inhibition @ 10 uM” value was 2.9%.
With `CCOc1ccc(-c2cc(C(=O)O)c3ccccc3n2)cc1`, the “% Inhibition @ 10 uM” value is recorded as -0.641%.
With `COc1ccc(Cl)cc1N(CC(=O)Nc1cccc(Br)c1)S(C)(=O)=O` the figure was -7.09%; with `O=C1c2ccccc2C(=O)c2c1ncn2-c1ccccc1`, -1.81%; with `COc1ccc(/C=C(\C#N)c2nc3ccccc3[nH]2)cc1`, 2.94%.
Regarding `CCOc1cc2sc(N3CCC(C(=O)N(C)Cc4ccccc4)CC3)nc2cc1Br`, the “% Inhibition @ 10 uM” value is given as -3.34%.
As to `COc1cc(/C=C2\SC(=O)N(c3ccccc3)C2=O)ccc1OCC(=O)O`, the “% Inhibition @ 10 uM” value was determined as 0.36%.
With `CC(C)CCOc1ccc(CC(=O)O)cc1`, the “% Inhibition @ 10 uM” value was 1.03%.
With `O=c1[nH]c(=O)n(Cc2ccco2)c2c1C(C(F)(F)F)(C(F)(F)F)NC(c1ccncc1)=N2` the figure was 0.561%; with `CCOC(=O)c1cnn(-c2ccc(Cl)c(Cl)c2)c1N`, -9.03%; with `CC(NC(=O)C1CCCN1c1nnc(N2CCCC2=O)s1)c1ccc2c(c1)OCCO2` (stereo not shown), -4.76%.
Turning to `COCCn1c(Cc2cccn2C)nnc1SCC(N)=O`, the “% Inhibition @ 10 uM” value is on record as -5.58%.
For the compound `CC1=C(C(=O)OCc2ccc(C)cc2)C(c2cccc(Cl)c2Cl)CC(=O)N1` (stereo not shown), the “% Inhibition @ 10 uM” value is recorded as 4.23%.
For the compound `CCc1nn(CC(=O)NCc2cccnc2)c(=O)c2cccn12`, the “% Inhibition @ 10 uM” value is reported as -1.81%.
`NC(=O)COc1ccc2ccccc2c1Br`: the “% Inhibition @ 10 uM” value is -7.32%.
For the compound `CCn1cc(C2C(C#N)=C(N)OC3=C2C(=O)CCC3)c(C)n1` (stereo not shown), the “% Inhibition @ 10 uM” value is on record as -1.84%.
With `CS(=O)(=O)C1=NSC2=NC(=O)/C(=C\c3ccc(-c4ccccc4)o3)C(=N)N21`, the “% Inhibition @ 10 uM” value is listed as -1.58%.
With `O=C(c1ccc2c(c1)OCO2)N(Cc1ccccc1)Cc1ccccc1`, the “% Inhibition @ 10 uM” value is -3.26%.
On to `Cc1ccccc1OC(C)C(=O)Nc1nccs1` (stereo not shown), for which the “% Inhibition @ 10 uM” value is given as -9.11%.
Turning to `CC(=O)Nc1ccc(S(=O)(=O)CO)cc1`, the “% Inhibition @ 10 uM” value is 1.44%.
As for `C=CCn1c(SCC(N)=O)nc2c(c1=O)C1(CCCCC1)Cc1ccccc1-2`, the “% Inhibition @ 10 uM” value amounted to 0.751%.
With `Cc1ccccc1OCC(=O)Nc1ccc(S(=O)(=O)N2CCC(C)CC2)cc1` the figure was -2.76%; with `CCCCCCc1cc2cc(-c3csc(NC(=O)CCC(=O)N4CCCC4)n3)c(=O)oc2cc1O`, 5.27%; with `CSc1nc2ccc3nc(NC(=O)c4ccc(F)cc4)sc3c2s1`, 3.06%.
With `CC1(C)CC(=O)C2=C(C1)OC(N)=C(C#N)C21C(=O)N(CCc2ccccc2)c2ccccc21` (stereo not shown) the figure was -4.6%; with `CN(CCNC(=O)CN1C(=O)C(c2ccccc2)Oc2cccnc21)C1CCCCC1` (stereo not shown), -2.1%.
With `O=C(NCc1cccs1)c1cc2nc(-c3cccs3)cc(C(F)(F)Cl)n2n1` the figure was -9.26%.
For `COc1ccc(CC/N=C/C2=C(O)CC(c3ccccc3)CC2=O)cc1OC` (stereo not shown), the “% Inhibition @ 10 uM” value is reported as -2.15%.
Take `CCOC(=O)c1c(NC(=O)COCc2cc(-c3cccs3)on2)sc(C)c1C`: the “% Inhibition @ 10 uM” value is on record as -6.13%.
With `CCN1CCN(Cc2sccc2C)CC1` the figure was -2.7%; with `O=C(NC1CCCC1)c1ccccc1Br`, 2.46%.
As for `OCCCc1nc2n(n1)C(c1cccs1)C=C(c1ccc(Br)cc1)N2` (stereo not shown), the “% Inhibition @ 10 uM” value was determined as 0.913%.
Regarding `Cc1ccc(NC(=O)CCC(=O)Nc2ccc(C)c(Cl)c2)cc1Cl`, the “% Inhibition @ 10 uM” value is -3.18%.
With `COc1ccc(/C=C2/C(=O)N(c3ccccc3)C(=S)N(c3ccccc3OC)C2=O)cc1OC`, the “% Inhibition @ 10 uM” value turned out to be 1.41%.
For `Cc1cc(C)n(Cc2ccc(C(=O)NCc3cccs3)o2)n1`, the “% Inhibition @ 10 uM” value was -6.79%.
In the case of `CC(Cc1ccccc1F)NCCN1CCOCC1` (stereo not shown), the “% Inhibition @ 10 uM” value turned out to be 0.0792%.
In the case of `Cc1cccc(NC(=O)CN2C(=O)N/C(=C/c3cc(C)n(C(C)C)c3C)C2=O)c1`, the “% Inhibition @ 10 uM” value is listed as 9.01%.
Regarding `Cc1cc(C)n2nc(SC(C)C(=O)NCc3cccs3)nc2n1` (stereo not shown), the “% Inhibition @ 10 uM” value is reported as -0.519%.
Consider `Cc1onc(-c2ccccc2)c1C(=O)Nc1ccc(S(=O)(=O)NC(C)(C)C)cc1`, for which the “% Inhibition @ 10 uM” value was determined as 4.03%.
On to `Cc1cc(C(=O)O)cc(S(=O)(=O)Nc2ccccc2)c1C`, for which the “% Inhibition @ 10 uM” value is listed as 1.34%.
Take `COc1cc(OC)cc(C(=O)Nc2ccc(C(=O)c3ccccc3)cc2)c1`: the “% Inhibition @ 10 uM” value is -4.15%.
With `CCSC1=C(C#N)C2(CCCCC2)C2=C(O)CC(C)(C)CC2=N1`, the “% Inhibition @ 10 uM” value came to 12.4%.
As to `CCN(CC)C(=O)CSc1nc2ccccc2c(O)c1C(=O)OC`, the “% Inhibition @ 10 uM” value came out at 1.68%.
Take `COC(=O)c1sc2nc(-c3ccccc3)cc(-c3ccc(OC)cc3)c2c1N`: the “% Inhibition @ 10 uM” value worked out at 2.79%.
On to `O=C1C2CC=C(Cl)CC2C(=O)N1CC[n+]1ccccc1` (stereo not shown), for which the “% Inhibition @ 10 uM” value is reported as -1.1%.
Turning to `CCCc1cc(C(=O)Nc2ccn(Cc3ccc(C)cc3)n2)no1`, the “% Inhibition @ 10 uM” value is given as -3.77%.
On to `N#CC1=C(SCc2ccccc2)NC(=O)CC1c1ccc(Br)cc1` (stereo not shown), for which the “% Inhibition @ 10 uM” value came out at 1.38%.
With `CCc1nnc(NC(=O)C2CCCN(c3nnc(-n4cccc4)s3)C2)s1` (stereo not shown) the figure was -0.707%; with `Cc1cccc(N2CCN(C(=O)CN3C(=O)c4ccccc4C3=O)CC2)n1`, 1.88%; with `Clc1ccc(OCCN2CCN(c3nc4ccccc4c4nc(-c5cccnc5)nn34)CC2)cc1`, -4.21%.
With `CCOc1ccc(C2C(C#N)=C(N)Oc3[nH]nc(C)c32)cc1Br` (stereo not shown), the “% Inhibition @ 10 uM” value is 3.95%.
Turning to `O=C(O)c1cc2cccc(O)c2oc1=O`, the “% Inhibition @ 10 uM” value is on record as -2.41%.
In the case of `CN1CCc2nc(S)c(C#N)c(-c3cccs3)c2C1`, the “% Inhibition @ 10 uM” value is recorded as -0.25%.
`O=C1C(=O)N(CNc2ccccc2Cl)c2ccccc21`: the “% Inhibition @ 10 uM” value was -0.105%.
Consider `Cc1ccc(C(C)C)c(OCC(O)Cn2cnc3ccccc32)c1` (stereo not shown), for which the “% Inhibition @ 10 uM” value was -8.67%.
Turning to `CC(C)OCCCNC(=O)c1cc2cc3ccc(Cl)cc3nc2o1`, the “% Inhibition @ 10 uM” value stood at 1.9%.
With `Cc1cc(C)n(C(C)CC(=O)NCc2ccc(OC(C)C)cc2)n1` (stereo not shown) the figure was -5.33%; with `Cc1cc(=O)n2nc(-c3ccc([N+](=O)[O-])cc3)sc2n1`, -0.902%; with `CCN1CCC(NCc2cccc(C(F)(F)F)c2)CC1`, 3.48%.
Regarding `O=C(Nc1ccc(Cl)c(Cl)c1)c1ccc(C(=O)Nc2ccc(Cl)c(Cl)c2)cc1`, the “% Inhibition @ 10 uM” value amounted to 0.526%.
As to `COc1ccc(S(=O)(=O)N(C)CC(=O)Nc2ccc(Cl)c(C(F)(F)F)c2)cc1OC`, the “% Inhibition @ 10 uM” value is listed as 2.84%.
As to `Cc1c(Cl)cccc1NC(=O)COc1ccc(S(=O)(=O)NC(C)(C)C)cc1`, the “% Inhibition @ 10 uM” value was found to be 4.44%.
With `CC(=O)Nc1cccc(C(=O)Nc2ccc(NC(C)=O)c(Cl)c2)c1` the figure was -10.6%; with `CCOc1ccccc1NC(=O)c1ccoc1C`, -1.89%; with `COc1ccc(C2Oc3ccccc3C3CC(c4cccs4)=NN32)cc1O` (stereo not shown), 39.5%.
Next, `CN1CCCC1CCNC1CCN(CCc2ccccc2)CC1` (stereo not shown): -2.95%; `CC(=O)c1ccc(NC(=O)CN2C(=O)C3C4c5ccccc5C(c5ccccc54)C3C2=O)cc1` (stereo not shown): 1.72%; `Cc1cc(N2CCN(Cc3ccc4c(c3)OCO4)CC2)n2nc(C)c(-c3ccc(Cl)cc3)c2n1`: 0.51%.
On to `Cc1cc(C(=O)NCCC2=CCCCC2)c2c(C)nn(-c3ccccc3)c2n1`, for which the “% Inhibition @ 10 uM” value was determined as 3.75%.
For `CCn1cc(C(=O)Nc2nccs2)c(=O)c2ccc(C)nc21`, the “% Inhibition @ 10 uM” value is 1.32%.
In the case of `O=C(NCc1nc(-c2ccccc2)no1)c1ccccc1-c1ccccc1`, the “% Inhibition @ 10 uM” value worked out at 0.486%.
For `Cc1onc(-c2ccccc2Cl)c1C(=O)N1CC(C)CC(C)C1` (stereo not shown), the “% Inhibition @ 10 uM” value is given as -3.27%.
Next, `O=C(O)c1ccc(NS(=O)(=O)c2cccc(C(=O)Nc3ccccc3)c2)cc1`: -0.0217%.
Next, `CCCC12CN3CC(C)(CN(C1)C31CCCCC1)C2=O`: 2.25%; `CC(NC(=O)/C(C#N)=C/c1ccc(Cl)c(Cl)c1)c1ccccc1` (stereo not shown): 3.34%.
Next, `COC(=O)C1=CN(Cc2ccc(F)cc2)C=C(C(=O)OC)C1c1ccc(C(F)(F)F)cc1`: -1.46%.
Take `O=S(=O)(NCCc1ccccc1)c1ccc(F)cc1`: the “% Inhibition @ 10 uM” value was -3.04%.
Take `O=C(Cc1ccccc1)Nc1cccc(NC(=O)Cc2ccccc2)n1`: the “% Inhibition @ 10 uM” value was -6.79%.
As to `O=C(c1ccc(F)cc1)N1N=C(c2ccccc2)CC1c1ccc2c(c1)OCO2` (stereo not shown), the “% Inhibition @ 10 uM” value was -5.82%.
With `CCOC(=O)c1oc2ccc3c(c2c1C)C(=O)CC(C)(c1ccc(F)cc1)O3` (stereo not shown) the figure was 4.79%.
`Cc1cc(C)n(CC(=O)n2c(C)c(C)c3ccccc32)n1`: the “% Inhibition @ 10 uM” value stood at 0.884%.
On to `O=c1c(-c2ccccc2)c(O)c2c(n1-c1ccccc1)CCCC2`, for which the “% Inhibition @ 10 uM” value was -4.67%.
Regarding `COc1ccc(N(CC(=O)Nc2ccccc2F)S(C)(=O)=O)cc1OC`, the “% Inhibition @ 10 uM” value is 4.83%.
